Hit rate of the full screen: of about 310,000 compounds, about 2,200 (0.71%) showed an effect of 50% or more. Effects have a minus sign here. The list shows a part of the results.
molecular target: human ether-à-go-go-related gene (hERG) potassium channel (human, UniProt Q12809); experiment: primary screen, population patch clamp on CHO cells stably expressing hERG
Sequence (Q12809 whole entry, looked up): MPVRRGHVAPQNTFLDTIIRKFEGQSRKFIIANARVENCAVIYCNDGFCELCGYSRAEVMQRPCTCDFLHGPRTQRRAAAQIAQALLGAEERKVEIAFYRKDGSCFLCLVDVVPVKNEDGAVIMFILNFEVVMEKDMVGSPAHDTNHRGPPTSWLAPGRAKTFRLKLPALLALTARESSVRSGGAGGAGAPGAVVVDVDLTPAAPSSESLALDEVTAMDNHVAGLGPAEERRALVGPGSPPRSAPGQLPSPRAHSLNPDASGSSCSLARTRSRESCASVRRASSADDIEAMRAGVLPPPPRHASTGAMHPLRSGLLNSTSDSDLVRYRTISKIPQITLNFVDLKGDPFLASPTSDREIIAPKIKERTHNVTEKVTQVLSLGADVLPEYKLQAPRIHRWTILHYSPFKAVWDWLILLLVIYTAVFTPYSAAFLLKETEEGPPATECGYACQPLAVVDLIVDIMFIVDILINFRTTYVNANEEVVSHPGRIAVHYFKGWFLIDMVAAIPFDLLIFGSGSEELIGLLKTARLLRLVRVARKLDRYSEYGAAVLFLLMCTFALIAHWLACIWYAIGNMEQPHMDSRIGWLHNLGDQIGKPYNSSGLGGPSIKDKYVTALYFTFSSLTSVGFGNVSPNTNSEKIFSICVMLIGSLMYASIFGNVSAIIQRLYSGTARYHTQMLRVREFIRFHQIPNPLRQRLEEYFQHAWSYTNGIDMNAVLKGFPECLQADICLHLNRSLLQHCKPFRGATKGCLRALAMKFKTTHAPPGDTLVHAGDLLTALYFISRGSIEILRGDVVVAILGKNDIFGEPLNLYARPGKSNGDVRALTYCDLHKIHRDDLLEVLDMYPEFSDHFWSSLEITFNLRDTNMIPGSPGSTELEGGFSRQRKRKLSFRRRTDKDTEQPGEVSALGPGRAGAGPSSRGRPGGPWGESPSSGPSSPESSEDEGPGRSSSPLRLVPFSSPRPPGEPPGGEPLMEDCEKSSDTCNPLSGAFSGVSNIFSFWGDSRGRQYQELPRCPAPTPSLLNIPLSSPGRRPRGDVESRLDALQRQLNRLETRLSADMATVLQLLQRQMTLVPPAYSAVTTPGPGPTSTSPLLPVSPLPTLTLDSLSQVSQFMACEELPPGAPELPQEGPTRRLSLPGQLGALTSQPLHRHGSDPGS

Compound | hERG current change (%, negative = inhibition) at 1uM [%]
CCOCCc1nnc(NC(=O)CS(=O)(=O)c2ccc(C)cc2)s1 | 6.45
Cc1ccc(C2=NN3C(=O)c4ccccc4C3C2)cc1 (stereo not shown) | -2.74
COC(=O)c1cc(C)sc1NC(=O)C1CC=CCC1C(=O)O (stereo not shown) | -4.16
O=C(O)/C=C\C(=O)NCc1ccccc1 | 12.2
CCOC(=O)c1c(C(=O)OCC)c(C)n(CCc2ccccc2)c1C | 8.67
COc1ccccc1OCCNC(=O)c1ccco1 | 8.6
CCOc1ccccc1NC(=O)CNC(=O)Cc1ccccc1 | 6.27
CN(C)c1ccc(NC(=O)CSc2nc(C3CC3)nc3ccccc23)cc1 | 11.8
C=CCc1c(C)[nH]c2ccc(C)cc2c1=O | 23.6
CCOc1ccc(C2=CC(c3ccccc3)n3ncnc3N2)cc1 (stereo not shown) | 0.429
Cc1cc(C)c2nc(C(F)(F)F)nc(NCCCN3CCCC3=O)c2c1 | 7.71
C[C@H](NCc1c[nH]c2ccccc12)c1ccccc1 | 13
CCOC(=O)c1cc(C#N)c(N2CCN(c3ccccn3)CC2)nc1-c1ccccc1 | 7.83
COc1ccc(C(=O)CSc2nccn2C)cc1 | 22.7
C/C(=N\NC(=S)Nc1cccc(C)c1)c1cc2ccccc2o1 | 6.89
COC(=O)c1cccc(N(CC(=O)NC2CCCC2)C(=O)CCC(=O)Nc2cc(C)on2)c1 | 16.8
O=C(O)/C=C/c1ccc(S(=O)(=O)NCc2cccnc2)cc1 | 10.1
CCC(CC)C(=O)N1CCCC(c2nc(-c3cccs3)no2)C1 (stereo not shown) | 15.4
CCOc1ccc(NC(=O)CNC(=O)c2ccc(OC)c(OC)c2)cc1 | 5.55
COc1ccc(CCNC(=O)c2[nH]c(C)c(C(C)=O)c2C)cc1 | 10.9

Compound | hERG current change (%, negative = inhibition) at 1uM [%]
O=S(=O)(/N=C(\c1ccccc1)N1CCOCC1)c1ccc(Cl)cc1 | 4.74
O=C(CSc1ncn[nH]1)NCCOc1ccccc1 | 13.7
COc1ccc(S(=O)(=O)NC(N)=NCCc2ccc(OC)c(OC)c2)cc1C | 3.75
CC1CC1C(=O)N(C)CC(=O)Nc1ccc(Cl)c(C(F)(F)F)c1 (stereo not shown) | 3.8
O=C(C1CCCC1)N1CCC(CO)(Cc2ccccc2Cl)CC1 | -4.01
O=C(Oc1ccc(/C=N/Nc2nc(N3CCCCC3)nc(N3CCCCC3)n2)cc1)c1ccco1 | 14.6
CCC(=NC)C1=C(O)CC(c2ccccc2)CC1=O (stereo not shown) | 18.7
CC(C)(C)c1csc(NC(=O)c2cccnc2Cl)n1 | -3.19
Clc1ccc(CSc2nnc(CN3CCOCC3)n2-c2ccccc2)cc1Cl | -23.1
O=C(N/N=C/c1ccccc1O)NC12CC3CC(CC(C3)C1)C2 | 7.05
Nc1ccnn1-c1ccccc1 | 10.2
Nc1cc(N)nc(SCc2cccc(F)c2)n1 | 17.8
CC(C)C(NC(=O)c1ccccc1)C(=O)NCCc1ccccc1 (stereo not shown) | 8.25
CSc1ccc(/C=C(\NC(=O)c2ccc(C)cc2)C(=O)NN)cc1 | 12.3
O=C(O)C1OC(Oc2cc3oc(-c4ccccc4)cc(=O)c3c(O)c2O)C(O)C(O)C1O (stereo not shown) | 12.3
CC(C)c1ccc(NC(=O)NC2CC3CCC(C2)N3Cc2cccs2)cc1 (stereo not shown) | 7.97
Cc1ccc(C(=O)N/N=C\C=C\c2ccc(Br)cc2)cn1 | -25.9
COc1ccc(S(=O)(=O)NCc2cccnc2)cc1OC | 12.8
CSCCC(NC(=O)c1cccc(C)c1)C(=O)OCC(=O)Nc1c(C)nn(-c2ccccc2)c1C (stereo not shown) | 2.77
CCOC(=O)c1ccc(NC(=O)c2nc[nH]c2C(=O)N2CCN(c3ccccc3)CC2)cc1 | 12

Compound | hERG current change (%, negative = inhibition) at 1uM [%]
Cc1ccc(-c2[nH]nc3c2C(c2ccccc2OC(=O)N2CCOCC2)C(C#N)=C(N)O3)cc1 (stereo not shown) | -1.8
COCc1cc(CN2CCN(Cc3ccsc3)C(CCO)C2)ccc1OC (stereo not shown) | -56.6
COc1ccccc1/C=C/C(=O)OCC(=O)c1cc(C)n(C)c1C | 1.53
CN(CC(=O)Nc1ccccc1Br)C(=O)c1cc2c(s1)CCCCC2 | 10.9
C=CCn1c(SCc2c(C(=O)OC)sc(N)c2C(=O)OC)nnc1-c1ccc(Cl)cc1 | -10.9
Cl.O=c1cc[nH]c2c1ccc1c(=O)cc[nH]c12 | 17.1
O=[N+]([O-])c1ccc(-c2nc(Nc3cccc(O)c3)c3ccccc3n2)cc1 | 13.5
c1ccc2[nH]c(CN3CCN(c4ncnc5c4oc4ccccc45)CC3)nc2c1 | -18.1
NS(=O)(=O)c1ccc(CCNC(=O)c2ccccc2F)cc1 | 4.79
O=C(Cc1ccc([N+](=O)[O-])cc1)Nc1cccnc1 | 0.804
CCCN(CC(=O)Nc1ccccc1OC)C(=O)c1cc(-c2ccccc2)nn1-c1ccccc1 | 13.8
COCCNC(=O)/C(C#N)=C/c1ccc(OCC(=O)NC2CCCCC2)cc1 | 8.74
CN(C)C(=O)CCC(=O)N1CCCCC1C(=O)Nc1ccc(Oc2ccccc2F)cc1 (stereo not shown) | -17.3
Cc1[nH]c2ccccc2c1CN1CCC(CO)(Cc2ccccc2)CC1 | 2.55
Cc1cccc(C(=O)Nc2scc(CC(C)C)c2C(=O)O)c1 | 13
CC(C(N)=O)N1CC(c2ccc(Cl)cc2)CC1=O (stereo not shown) | -1.16
CCc1ccc(NC(=O)COc2coc(CN3CCc4ccccc4C3)cc2=O)cc1 | -1.74
CCOC(=O)C1CCCN(C(=O)c2cccc(S(=O)(=O)N3CC(C)OC(C)C3)c2)C1 (stereo not shown) | 13.5
